This note sets out measurements from publication PMC6443190, “Regulation of anthocyanin accumulation via MYB75/HAT1/TPL-mediated transcriptional repression” (PLoS Genetics, 2019).

No constants are given. Whether binding was seen depends on the method and setting. In cells and extracts the contact can be indirect. Some entries that bind do so weakly or less than the wild type. Where a sequence is shown, tags or fusion partners need not be part of it.

Test [1] addresses T1, HA-TPL (Arabidopsis thaliana) (UniProt Q94AI7).
T1 sequence: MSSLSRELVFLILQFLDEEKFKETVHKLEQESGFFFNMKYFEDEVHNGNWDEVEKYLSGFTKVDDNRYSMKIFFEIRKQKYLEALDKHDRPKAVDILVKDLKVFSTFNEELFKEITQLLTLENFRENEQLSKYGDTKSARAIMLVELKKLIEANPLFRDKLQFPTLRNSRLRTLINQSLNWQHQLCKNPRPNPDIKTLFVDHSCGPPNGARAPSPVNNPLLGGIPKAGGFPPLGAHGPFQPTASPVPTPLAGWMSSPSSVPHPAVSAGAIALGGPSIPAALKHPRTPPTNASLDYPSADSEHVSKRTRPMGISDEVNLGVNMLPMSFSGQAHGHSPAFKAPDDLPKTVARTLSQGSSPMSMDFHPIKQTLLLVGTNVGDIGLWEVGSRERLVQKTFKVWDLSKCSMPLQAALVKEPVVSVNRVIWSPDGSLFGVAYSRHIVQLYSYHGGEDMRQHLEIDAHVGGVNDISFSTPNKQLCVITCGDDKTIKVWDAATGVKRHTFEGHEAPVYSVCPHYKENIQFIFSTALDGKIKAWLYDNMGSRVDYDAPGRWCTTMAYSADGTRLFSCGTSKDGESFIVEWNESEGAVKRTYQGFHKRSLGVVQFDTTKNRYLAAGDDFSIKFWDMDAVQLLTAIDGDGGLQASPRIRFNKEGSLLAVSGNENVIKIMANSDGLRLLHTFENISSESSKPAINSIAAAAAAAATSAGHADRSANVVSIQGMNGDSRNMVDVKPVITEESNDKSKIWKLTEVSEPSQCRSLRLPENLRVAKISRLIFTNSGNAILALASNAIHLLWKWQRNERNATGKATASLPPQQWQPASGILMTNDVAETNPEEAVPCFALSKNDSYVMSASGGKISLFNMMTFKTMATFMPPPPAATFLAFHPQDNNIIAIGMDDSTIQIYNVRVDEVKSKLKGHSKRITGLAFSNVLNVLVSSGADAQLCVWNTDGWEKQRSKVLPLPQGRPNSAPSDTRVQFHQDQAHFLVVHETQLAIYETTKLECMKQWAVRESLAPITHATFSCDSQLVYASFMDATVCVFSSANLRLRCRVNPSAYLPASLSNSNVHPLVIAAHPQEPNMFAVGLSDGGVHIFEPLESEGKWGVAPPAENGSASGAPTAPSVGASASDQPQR
As to the kind of experiment: co-IP; extracts of transgenic Arabidopsis plants; anti-HA agarose, 3 h, 4 C; 150 mM NaCl, 50 mM Tris-HCl pH 7.5, 0.1% NP-40; anti-HA and anti-GFP blots.

The target of test [2] is T2, HA-MYB75 (Arabidopsis thaliana) (UniProt Q9FE25).
T2 sequence: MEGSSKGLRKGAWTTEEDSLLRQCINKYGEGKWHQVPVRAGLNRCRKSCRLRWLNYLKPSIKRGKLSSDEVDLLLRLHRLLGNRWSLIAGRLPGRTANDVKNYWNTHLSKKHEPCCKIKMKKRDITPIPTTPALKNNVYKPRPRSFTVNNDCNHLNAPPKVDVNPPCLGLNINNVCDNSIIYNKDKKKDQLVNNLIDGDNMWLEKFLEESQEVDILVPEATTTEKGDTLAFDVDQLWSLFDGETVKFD
The test is described as above.

For test [3], the target named is T3, TT8-cYFP (Arabidopsis thaliana) (UniProt Q9FT81).
T3 sequence: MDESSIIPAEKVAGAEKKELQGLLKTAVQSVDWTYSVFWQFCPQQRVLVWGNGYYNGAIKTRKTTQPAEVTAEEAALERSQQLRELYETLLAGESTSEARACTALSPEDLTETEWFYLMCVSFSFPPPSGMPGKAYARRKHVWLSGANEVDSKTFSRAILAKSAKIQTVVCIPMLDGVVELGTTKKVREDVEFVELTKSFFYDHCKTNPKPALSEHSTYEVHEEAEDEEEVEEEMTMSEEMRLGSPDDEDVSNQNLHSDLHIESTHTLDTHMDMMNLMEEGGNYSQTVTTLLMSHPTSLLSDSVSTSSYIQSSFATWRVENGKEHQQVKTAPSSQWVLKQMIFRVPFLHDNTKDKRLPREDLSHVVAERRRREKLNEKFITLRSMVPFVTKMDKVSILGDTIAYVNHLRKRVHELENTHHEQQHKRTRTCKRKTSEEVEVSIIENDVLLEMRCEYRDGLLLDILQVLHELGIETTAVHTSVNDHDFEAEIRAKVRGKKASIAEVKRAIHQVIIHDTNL
As to the kind of experiment: split reporter; BiFC; nYFP and cYFP fusions coinfiltrated in N. benthamiana leaves.

The target in test [4] is T4, EGL3-cYFP (Arabidopsis thaliana) (UniProt Q9CAD0).
T4 sequence: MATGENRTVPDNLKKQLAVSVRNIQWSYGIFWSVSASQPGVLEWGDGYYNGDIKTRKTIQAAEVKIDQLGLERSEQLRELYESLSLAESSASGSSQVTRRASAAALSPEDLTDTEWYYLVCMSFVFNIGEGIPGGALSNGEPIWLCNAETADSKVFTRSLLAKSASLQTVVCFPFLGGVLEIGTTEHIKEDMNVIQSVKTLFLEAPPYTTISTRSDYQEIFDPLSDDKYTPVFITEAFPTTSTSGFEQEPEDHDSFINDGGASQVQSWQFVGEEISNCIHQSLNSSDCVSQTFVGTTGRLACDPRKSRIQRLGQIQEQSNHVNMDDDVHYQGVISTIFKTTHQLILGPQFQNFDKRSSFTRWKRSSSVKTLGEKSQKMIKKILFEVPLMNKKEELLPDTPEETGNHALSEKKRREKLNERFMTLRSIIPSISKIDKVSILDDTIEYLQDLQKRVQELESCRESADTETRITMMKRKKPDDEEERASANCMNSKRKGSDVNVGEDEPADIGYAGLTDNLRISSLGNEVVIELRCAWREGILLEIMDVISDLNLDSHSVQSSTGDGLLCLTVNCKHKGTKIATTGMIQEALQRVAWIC
The description is as above.

The target in test [5] is T5, TTG1-cYFP (Arabidopsis thaliana) (UniProt Q9XGN1).
T5 sequence: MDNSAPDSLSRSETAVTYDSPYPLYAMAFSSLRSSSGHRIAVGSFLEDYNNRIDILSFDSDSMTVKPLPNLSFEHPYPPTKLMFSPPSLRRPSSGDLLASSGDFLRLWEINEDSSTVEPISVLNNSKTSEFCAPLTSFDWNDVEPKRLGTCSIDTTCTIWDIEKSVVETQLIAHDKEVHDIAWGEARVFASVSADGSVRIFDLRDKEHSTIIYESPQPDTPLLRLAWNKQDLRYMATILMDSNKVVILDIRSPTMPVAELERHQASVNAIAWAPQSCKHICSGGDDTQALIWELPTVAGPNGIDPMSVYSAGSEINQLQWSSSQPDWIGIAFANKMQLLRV
The description is as above.

B1: HAT1-GFP (protein, UniProt P46600 1-282)
chain: MMMGKEDLGLSLSLGFAQNHPLQLNLKPTSSPMSNLQMFPWNQTLVSSSDQQKQQFLRKIDVNSLPTTVDLEEETGVSSPNSTISSTVSGKRRSTEREGTSGGGCGDDLDITLDRSSSRGTSDEEEDYGGETCRKKLRLSKDQSAVLEDTFKEHNTLNPKQKLALAKKLGLTARQVEVWFQNRRARTKLKQTEVDCEYLKRCVEKLTEENRRLEKEAAELRALKLSPRLYGQMSPPTTLLMCPSCERVAGPSSSNHNQRSVSLSPWLQMAHGSTFDVMRPRS
On to B1, for which the binding entry in test [1] and in test [2] was “binds” throughout.

B2: HAT1-nYFP (protein, UniProt P46600 1-282)
chain: MMMGKEDLGLSLSLGFAQNHPLQLNLKPTSSPMSNLQMFPWNQTLVSSSDQQKQQFLRKIDVNSLPTTVDLEEETGVSSPNSTISSTVSGKRRSTEREGTSGGGCGDDLDITLDRSSSRGTSDEEEDYGGETCRKKLRLSKDQSAVLEDTFKEHNTLNPKQKLALAKKLGLTARQVEVWFQNRRARTKLKQTEVDCEYLKRCVEKLTEENRRLEKEAAELRALKLSPRLYGQMSPPTTLLMCPSCERVAGPSSSNHNQRSVSLSPWLQMAHGSTFDVMRPRS
Regarding B2, the binding entry in test [3], in test [4] and in test [5] was “no binding” in each case.
